Article PMC5700166
Only a part is listed here, and it is no random draw. The list includes weakly bound sequences.

What was measured:
Assay in all cases: protein-binding microarray (PBM)
Conditions in all cases: PBM: ~300 nM protein, 6 mM HEPES pH 7.8, 80 mM KCl, 0.5 mM EDTA, 0.5 mM EGTA, 6% glycerol, 35 ng/ul poly-dIdC, 1% milk, 1 h, room temperature; Ap Aiptasia and Nv Nematostella (sea anemones) / Co Capsaspora / Aq Amphimedon (sponge) / Dm Drosophila / Hu human; RHD is the Rel homology domain; high values mean tight binding; most listed sequences are background and not binding sites; double strand, one strand shown
[1] = biological target: T1, GST-Ap-NF-kB RHD (UniProt A0A913YAJ5)
T1 sequence: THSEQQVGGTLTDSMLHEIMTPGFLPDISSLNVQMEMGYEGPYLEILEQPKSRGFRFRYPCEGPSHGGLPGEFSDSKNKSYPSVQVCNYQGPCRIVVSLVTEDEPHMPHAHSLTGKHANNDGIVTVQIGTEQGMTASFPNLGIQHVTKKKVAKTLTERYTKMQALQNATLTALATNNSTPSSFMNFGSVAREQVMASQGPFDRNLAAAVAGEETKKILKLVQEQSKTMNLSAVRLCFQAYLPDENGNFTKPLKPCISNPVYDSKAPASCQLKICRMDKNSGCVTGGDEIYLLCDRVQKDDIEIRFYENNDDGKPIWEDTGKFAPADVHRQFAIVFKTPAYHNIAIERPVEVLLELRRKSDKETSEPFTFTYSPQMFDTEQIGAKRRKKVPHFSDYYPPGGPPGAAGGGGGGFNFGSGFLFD

[2] = biological target: T2, GST-Nv-NF-kB (Cys allele) (UniProt E5G601)
T2 sequence: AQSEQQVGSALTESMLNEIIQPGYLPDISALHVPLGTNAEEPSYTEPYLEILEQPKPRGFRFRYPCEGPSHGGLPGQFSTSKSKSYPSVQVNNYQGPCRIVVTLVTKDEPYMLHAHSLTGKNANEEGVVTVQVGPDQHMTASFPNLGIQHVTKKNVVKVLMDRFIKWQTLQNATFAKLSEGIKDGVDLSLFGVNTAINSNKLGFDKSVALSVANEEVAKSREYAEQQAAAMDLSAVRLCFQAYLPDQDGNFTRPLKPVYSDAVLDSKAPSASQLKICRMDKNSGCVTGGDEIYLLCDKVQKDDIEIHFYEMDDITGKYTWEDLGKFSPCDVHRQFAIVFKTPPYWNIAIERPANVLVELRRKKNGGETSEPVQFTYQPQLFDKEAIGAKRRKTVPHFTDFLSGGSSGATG

[3] = biological target: T3, GST-Co-NF-kB (UniProt F1ARL5)
T3 sequence: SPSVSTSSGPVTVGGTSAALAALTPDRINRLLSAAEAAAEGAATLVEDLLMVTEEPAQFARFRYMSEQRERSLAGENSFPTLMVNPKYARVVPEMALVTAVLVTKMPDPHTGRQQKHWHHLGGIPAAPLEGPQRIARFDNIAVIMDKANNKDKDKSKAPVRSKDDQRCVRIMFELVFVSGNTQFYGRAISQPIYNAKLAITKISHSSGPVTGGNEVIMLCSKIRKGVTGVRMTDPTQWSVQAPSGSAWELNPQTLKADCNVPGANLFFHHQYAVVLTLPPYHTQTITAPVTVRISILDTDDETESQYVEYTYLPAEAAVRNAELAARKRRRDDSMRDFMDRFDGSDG

[4] = biological target: T4, GST-Dm-Relish (UniProt Q94527)
T4 sequence: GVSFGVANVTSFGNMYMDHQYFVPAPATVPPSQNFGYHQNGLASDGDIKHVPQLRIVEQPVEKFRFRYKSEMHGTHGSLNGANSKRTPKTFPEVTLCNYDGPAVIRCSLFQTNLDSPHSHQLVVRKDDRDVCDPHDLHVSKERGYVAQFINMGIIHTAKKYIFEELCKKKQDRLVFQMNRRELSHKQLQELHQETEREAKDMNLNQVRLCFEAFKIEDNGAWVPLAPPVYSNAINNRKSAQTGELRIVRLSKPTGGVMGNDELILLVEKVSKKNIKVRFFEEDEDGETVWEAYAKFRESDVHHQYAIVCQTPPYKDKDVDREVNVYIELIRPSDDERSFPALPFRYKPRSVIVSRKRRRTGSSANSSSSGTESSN

[5] = biological target: T5, GST-Aq-NF-kB (UniProt A9Y5G7)
T5 sequence: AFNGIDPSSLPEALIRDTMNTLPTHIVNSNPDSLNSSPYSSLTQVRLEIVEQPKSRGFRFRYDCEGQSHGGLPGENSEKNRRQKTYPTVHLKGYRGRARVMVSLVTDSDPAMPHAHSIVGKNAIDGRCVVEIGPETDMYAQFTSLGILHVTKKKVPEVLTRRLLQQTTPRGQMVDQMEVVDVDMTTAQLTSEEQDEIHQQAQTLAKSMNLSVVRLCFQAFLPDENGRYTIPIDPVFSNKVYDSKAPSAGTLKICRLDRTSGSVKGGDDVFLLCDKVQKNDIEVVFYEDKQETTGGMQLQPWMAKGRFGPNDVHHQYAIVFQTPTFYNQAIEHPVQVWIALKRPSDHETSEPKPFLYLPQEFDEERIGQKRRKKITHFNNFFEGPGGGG

| Sequence | binding signal [1] [z-score] | binding signal [2] [z-score] | binding signal [3] [z-score] | binding signal [4] [z-score] | binding signal [5] [z-score] |
| --- | --- | --- | --- | --- | --- |
| CCGATTAACATCAGGCACTAGTCTGATGTTAATCGGGTCTTGATTCGCTTGACGCTGCTG | -1.02 | -0.75 | -0.872 | -1.06 | -0.809 |
| CCGATTAACATCAACCAGTAGACTGATGTTAATCGGGTCTTGATTCGCTTGACGCTGCTG | -0.559 | -0.642 | -0.294 | -0.34 | -0.326 |
| CCGATTAACATCATGAAATTCCATGATGTTAATCGGGTCTTGATTCGCTTGACGCTGCTG | -1.17 | -0.146 | -0.374 | 0.27 | 0.222 |
| CCGATTAACATCACGGAAAAACCTGATGTTAATCGGGTCTTGATTCGCTTGACGCTGCTG | 0.504 | 0.151 | 0.299 | 2.16 | 3.55 |
| CCGATTAACATCATCGGATAACATGATGTTAATCGGGTCTTGATTCGCTTGACGCTGCTG | -0.756 | 0.0981 | -0.134 | -0.014 | -0.316 |
| CCGATTAACATCAGTCATTAAGATGATGTTAATCGGGTCTTGATTCGCTTGACGCTGCTG | -0.896 | 0.0111 | -0.402 | -0.625 | -0.291 |
| CCGATTAACATCAATATTCTCTCTGATGTTAATCGGGTCTTGATTCGCTTGACGCTGCTG | -0.122 | 0.037 | -0.351 | 0.00359 | -0.38 |
| CCGATTAACATCAGTCTAGATAGTGATGTTAATCGGGTCTTGATTCGCTTGACGCTGCTG | -0.148 | -0.726 | -0.185 | -0.508 | -0.774 |
| CCGATTAACATCACGTTTTAGTGTGATGTTAATCGGGTCTTGATTCGCTTGACGCTGCTG | -0.674 | -0.0849 | -0.0745 | 0.931 | -0.185 |
| CCGATTAACATCAACCCTCGAACTGATGTTAATCGGGTCTTGATTCGCTTGACGCTGCTG | 0.133 | -0.317 | 0.378 | -0.399 | -0.179 |
| CCGATTAACATCATATGGGATCGTGATGTTAATCGGGTCTTGATTCGCTTGACGCTGCTG | 0.504 | -1.05 | 0.162 | 0.314 | 0.338 |
| CCGATTAACATCATATGCGTGACTGATGTTAATCGGGTCTTGATTCGCTTGACGCTGCTG | -0.169 | -0.567 | -0.853 | -0.342 | -0.154 |
| CCGATTAACATCACTATAGGCCGTGATGTTAATCGGGTCTTGATTCGCTTGACGCTGCTG | -0.649 | 0.207 | -0.129 | 0.134 | -0.413 |
| CCGATTAACATCAGGAATACTCCTGATGTTAATCGGGTCTTGATTCGCTTGACGCTGCTG | -0.636 | -0.0105 | -0.449 | -0.139 | -0.22 |
| CCGATTAACATCAACATGGAAAATGATGTTAATCGGGTCTTGATTCGCTTGACGCTGCTG | -0.378 | -0.248 | 0.334 | -0.0133 | -0.303 |
